The list shows a part of the results. The energies were worked out here from pooled read counts, against the library average; single values are noisy.
Molecular target: T1, Pho4 (S. cerevisiae) (UniProt P07270)
T1 sequence: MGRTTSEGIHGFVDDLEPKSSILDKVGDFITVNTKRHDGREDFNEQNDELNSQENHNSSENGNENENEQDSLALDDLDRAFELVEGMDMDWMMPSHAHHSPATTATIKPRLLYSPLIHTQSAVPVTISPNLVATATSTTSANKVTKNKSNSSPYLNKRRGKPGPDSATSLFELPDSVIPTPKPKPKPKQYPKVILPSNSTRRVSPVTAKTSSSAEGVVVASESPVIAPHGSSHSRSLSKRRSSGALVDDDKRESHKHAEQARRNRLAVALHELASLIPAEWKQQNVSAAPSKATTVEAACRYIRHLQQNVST
Assay: relative binding free energy (BET-seq); higher = weaker binding
Conditions: reference: library average

Sequence	relative binding free energy
CTGGCCACGTGGGGGG	-0.28 kcal/mol
TGAGTCACGTGTTCAG	0.14 kcal/mol
TGGAACACGTGATTTA	0.07 kcal/mol
AGAGTCACGTGCCTGG	0.14 kcal/mol
CGTGGCACGTGGTGGA	-0.24 kcal/mol
CGCTGCACGTGGTCGG	-0.05 kcal/mol
GATATCACGTGGCTGG	0.11 kcal/mol
TGATTCACGTGATAGT	0.26 kcal/mol
GAGCGCACGTGTGTTT	0.06 kcal/mol
GTGTTCACGTGGTTAG	0.25 kcal/mol
GTATTCACGTGTTAGT	0.33 kcal/mol
TAAGTCACGTGGAGTT	0.07 kcal/mol
GAGCGCACGTGTAGGG	-0.09 kcal/mol
TTGAGCACGTGCTGTA	-0.12 kcal/mol
GGCGCCACGTGGTGTG	-0.13 kcal/mol
GGTTTCACGTGTTGCG	0.21 kcal/mol
AGGGTCACGTGTTGGT	0.24 kcal/mol
GGAGTCACGTGAGCTG	0.31 kcal/mol
AGATGCACGTGCGGGG	-0.08 kcal/mol
GAGGTCACGTGCGGGT	0.16 kcal/mol
AAGAGCACGTGTGTTA	-0.14 kcal/mol
CGTGCCACGTGTGTTA	-0.02 kcal/mol
ACGCACACGTGGGTGG	-0.03 kcal/mol

Sequence	relative binding free energy
GTTGTCACGTGGATGG	0.18 kcal/mol
GGCGACACGTGTGAGT	0.24 kcal/mol
GGTATCACGTGGTATA	0.05 kcal/mol
GTTGGCACGTGCGGGA	-0.12 kcal/mol
TATGACACGTGAAGTG	0.3 kcal/mol
GAGAGCACGTGGTTAT	-0.08 kcal/mol
GAGTTCACGTGTTGTT	0.39 kcal/mol
AGGCTCACGTGATTGG	0.41 kcal/mol
TGCTACACGTGGAATG	0.24 kcal/mol
GATTACACGTGTCAGT	0.23 kcal/mol
GGGGGCACGTGGTGTG	-0.17 kcal/mol
GGATGCACGTGGGACT	-0.08 kcal/mol
TCGGACACGTGGTGAG	0.02 kcal/mol
CGGTCCACGTGAGGGG	0.13 kcal/mol
GTGTTCACGTGCCGTT	0.27 kcal/mol
TGTAGCACGTGTATGT	-0.11 kcal/mol
TACTTCACGTGGTGGC	0.18 kcal/mol
TGAGTCACGTGGGTGA	0 kcal/mol
TGATTCACGTGTCTTA	0.37 kcal/mol
AGAGGCACGTGGGCGA	-0.31 kcal/mol
GTGCTCACGTGTAAGT	0.29 kcal/mol
CGTTGCACGTGGAGCG	0.07 kcal/mol
ATTCTCACGTGCGGGT	0.16 kcal/mol

Sequence	relative binding free energy
ATGGGCACGTGCTTCG	-0.02 kcal/mol
CAGGTCACGTGCTGTT	0.04 kcal/mol
GTTAGCACGTGTAAGA	-0.02 kcal/mol
GTGAGCACGTGCGGTC	-0.05 kcal/mol
CGGGACACGTGGAAGT	0.1 kcal/mol
GGGTTCACGTGAGAAT	0.52 kcal/mol
TGGGGCACGTGTGGGC	0 kcal/mol
CATGTCACGTGTCTGT	0.23 kcal/mol
CGAAGCACGTGTGGGT	0.02 kcal/mol
GGGGGCACGTGTGACC	0.06 kcal/mol
TGGGTCACGTGACGGA	0.06 kcal/mol
TGTGGCACGTGAACAT	0.12 kcal/mol
TGCTTCACGTGGGGAT	0.12 kcal/mol
GGTGGCACGTGTTTCG	-0.08 kcal/mol
GTGTGCACGTGAACTT	0.3 kcal/mol
TTATCCACGTGGGTTG	-0.04 kcal/mol
GCTAACACGTGTGGGT	0.12 kcal/mol
ACGTGCACGTGTGAGG	-0.11 kcal/mol
TAGATCACGTGTATGA	0.1 kcal/mol
GGTGGCACGTGGTTTA	-0.08 kcal/mol
TAGTACACGTGGTGTT	-0.01 kcal/mol
TGGGTCACGTGTTAAA	0.19 kcal/mol
ACAGTCACGTGTATTT	0.21 kcal/mol

Sequence	relative binding free energy
GAGGACACGTGTTGTA	0.09 kcal/mol
GGATTCACGTGTGTCA	0.34 kcal/mol
GGACGCACGTGGTGTA	-0.09 kcal/mol
TGTTGCACGTGTATAA	0.01 kcal/mol
TATGCCACGTGGGGTC	-0.13 kcal/mol
GTGGACACGTGGTATG	-0.04 kcal/mol
TGTTGCACGTGAGACG	0.08 kcal/mol
TTTGTCACGTGGACCG	0.09 kcal/mol
CTATTCACGTGGATGT	0.27 kcal/mol
ATATTCACGTGGAGTT	0.25 kcal/mol
GATTGCACGTGTATGG	0.1 kcal/mol
AATGTCACGTGCGAGT	0.08 kcal/mol
AGTTCCACGTGTGGGG	0.16 kcal/mol
CGGCGCACGTGGGTGG	-0.17 kcal/mol
ATTGGCACGTGTTATG	-0.05 kcal/mol
TTTGTCACGTGGCGGA	-0.01 kcal/mol
CGGTTCACGTGAGTTA	0.46 kcal/mol
GGCGTCACGTGGGGCG	-0.01 kcal/mol
AGGTCCACGTGAGGTA	0.26 kcal/mol
TAGTACACGTGCGTGT	-0.07 kcal/mol
CAGAACACGTGTGGTT	0.09 kcal/mol
GTGTACACGTGAGTTT	0.2 kcal/mol
TGAAACACGTGGGTTG	-0.11 kcal/mol

Sequence	relative binding free energy
TTATGCACGTGTGGAG	0.08 kcal/mol
TGGTGCACGTGAGGTT	0.29 kcal/mol
TTTTCCACGTGGGGGG	-0.11 kcal/mol
GGAGTCACGTGGAACG	0.13 kcal/mol
TTTATCACGTGTCGCG	0.1 kcal/mol
TGAGGCACGTGAACTT	0.2 kcal/mol
GTATGCACGTGAGAGG	0.08 kcal/mol
GTCGGCACGTGGTAGG	-0.19 kcal/mol
CTCTTCACGTGTGGTG	0.14 kcal/mol
GTTGACACGTGTGAAA	0.19 kcal/mol
AATTGCACGTGGAGTA	-0.05 kcal/mol
ATCTGCACGTGAGGAG	0.31 kcal/mol
GGTTCCACGTGGTAAG	0.12 kcal/mol
TTTGCCACGTGTGGGC	0.1 kcal/mol
GGTTACACGTGAGTGA	0.28 kcal/mol
TTGTCCACGTGGGGAT	-0.13 kcal/mol
TATTTCACGTGGATGA	0.33 kcal/mol
GTGTACACGTGGATTT	0.24 kcal/mol
TGCTACACGTGAGTTG	0.37 kcal/mol
GTCTTCACGTGGTGTC	0.18 kcal/mol
TTCTGCACGTGAGGGA	0.3 kcal/mol
GGGCTCACGTGGGTTT	0.24 kcal/mol
TGTTTCACGTGTAACA	0.34 kcal/mol

— the BET-seq Pho4 binding data (Le et al. 2018)
